Results from PubChem BioAssay AID504832 (National Center for Advancing Translational Sciences (NCATS), 2011).
The whole screen tested about 310,000 compounds, of which about 18,000 (5.8%) were called active. Inconclusive results, whose numbers are uncertain, are shown with a selection of clear calls. Calls follow the shape of the dose curve; as a rule, active = well fitted inhibition curve with a large enough effect; inconclusive = small, poorly fitted or top-dose-only effect, or another doubt; inactive = no such curve, though single readings can be large or run the other way. Potencies of inconclusive entries are left out as doubtful fits.

Assay: Primary qHTS for delayed death inhibitors of the malarial parasite plastid, 48 hour incubation
Details: P. falciparum luciferase growth in erythrocytes; series mostly up to 28.7 µM; activity change, negative = inhibition: at the top concentration
In short: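 Firefly luciferase activity from engineered P. falciparum reports growth; inhibitors lower the luminescent signal. Cultures contained 2% hematocrit erythrocytes at 0.1% final parasitemia.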
% is scaled to controls: 0 for no effect and ±100 for the full control effect; potency is read from the fitted curve at half-maximal effect; tags tell the direction and shape of the fitted curve.

SMILES	Potency	activity change, negative = inhibition
N=c1c2c(n(Cc3ccccc3)c3c1CCC3)CCC2	active: 0.415 µM	–
COc1ccc(Br)cc1CNC(=O)CCCc1cn(C)c2ccccc12	–	inactive: -7.03%
COc1ccc(C2Nc3ccccc3C(=O)N2Cc2ccco2)cc1COc1ccc(F)cc1 (stereo unspecified)	active: 2.08 µM	–
COc1ccc(NC(=O)c2cc(-c3ccncc3)nc3ccc(Br)cc23)cc1OC	active: 13.1 µM	–
CSc1ccc(CN(C)C(C)C(=O)NCC2CCCCC2)cc1 (stereo unspecified)	inconclusive [inhibitor, partial curve]	–
CC(CCc1ccccc1)NC(=O)c1ccc(NC(=O)c2ccccc2)cc1 (stereo unspecified)	inconclusive [inhibitor, partial curve]	–
CCN(CC)C(=O)Oc1nnc(SC(C)C)n1-c1ccc(Cl)cc1	inconclusive [inhibitor, single point]	–
CCOC(=O)C1=C(N)Oc2cc(C)n(CCc3ccc(OC)c(OC)c3)c(=O)c2C1c1cccnc1 (stereo unspecified)	active: 2.33 µM	–
COC(=O)C1=C(C)N(Cc2ccc(OC)cc2)C(=O)C1	inconclusive [inhibitor, single point]	–
CCN1C(=NCCCOC(C)C)N[C@@H](CCc2ccccc2)[C@H](C(=O)NCCCOC(C)C)[C@H]1C	active: 4.65 µM	–
CC1CCCCN1C(=O)CNCC1CCCO1 (stereo unspecified)	inconclusive [inhibitor, partial curve]	–
COc1ccc(C(=O)C2CCCN(C(=O)Cn3ccc(C)n3)C2)cc1OC (stereo unspecified)	–	inactive: -15.2%
CCc1ccc(NC(=O)c2noc(C(C)C)c2[N+](=O)[O-])cc1	inconclusive [inhibitor, single point]	–
Cc1cccc2c1c1ccc3c(c1n2C)C(=O)C=CC3=O	active: 11.7 µM	–
Cc1cc(C)c(NC(=O)CSc2nncn2-c2cccnc2)c(C)c1	–	inactive: -1.23%
O=C(COc1ccc(F)cc1Br)Nc1ccccc1N1CCOCC1	active: 10.4 µM	–
COc1ccc(C2NC(=O)c3sc(=S)n(-c4ccccc4)c3N2)cc1 (stereo unspecified)	inconclusive [inhibitor, single point]	–
CCOc1ccc(CN(C)C(=O)CNC(=O)c2ccccc2)cc1	inconclusive [inhibitor, single point]	–
O=C(Nc1ccccc1)NC1CC2CCC(C1)N2Cc1nnnn1Cc1ccc2c(c1)OCO2 (stereo unspecified)	inconclusive [inhibitor, partial curve]	–
O=C(CN(Cc1ccc(F)cc1)S(=O)(=O)c1ccc(S(=O)(=O)N2CCOCC2)cc1)Nc1ccccc1	inconclusive [inhibitor, full curve]	–
CSc1ccccc1OCc1cc(C(=O)NC(C)Cc2cccc(C)n2)no1 (stereo unspecified)	active: 10.4 µM	–
CCOc1cc(NS(=O)(=O)CC)c(OCC)cc1NC(=O)c1ccco1	inconclusive [inhibitor, single point]	–
CN1c2ccccc2C2(C)CCCC3=Cc4cc([N+](=O)[O-])cc([N+](=O)[O-])c4OC312 (stereo unspecified)	active: 5.86 µM	–
Cc1cc(N2CCN(C)CC2)nc2ccc(NC(=S)NCc3cccs3)cc12	inconclusive [inhibitor, single point]	–

SMILES	Potency	activity change, negative = inhibition
COc1ccc(NC(C)=O)cc1S(=O)(=O)NC1CCSc2ccccc21 (stereo unspecified)	–	inactive: 25.7%
CCC(C)Nc1nc(N)c([N+](=O)[O-])c(Nc2cc(OC)ccc2OC)n1 (stereo unspecified)	inconclusive [inhibitor, full curve, poor fit]	–
COc1ccc(Nc2nc(C(=O)N3CCc4ccccc4C3)cs2)cc1	inconclusive [inhibitor, full curve, poor fit]	–
CC(C)/C=C1\CCc2c([nH]c3ccccc23)C1=O	inconclusive [inhibitor, full curve, poor fit]	–
CCOC(=O)Nc1cccc(OCC(=O)Nc2ccccc2OCC)c1	inconclusive [inhibitor, single point]	–
COc1cc(Nc2ccc(C)cc2)c([N+](=O)[O-])nc1[N+](=O)[O-]	inconclusive [inhibitor, single point]	–
Cc1ccccc1N=C(N)Nc1ccccc1C	inconclusive [inhibitor, single point]	–
CN(CCc1ccccn1)C(=O)c1cc(COc2ccc(F)cc2F)on1	–	inactive: 9.18%
O=C(Nc1nnc(-c2ccncc2)o1)c1ccccc1	inconclusive [inhibitor, partial curve, poor fit]	–
CCCn1c(NC(=O)c2ccccc2)nc2ccccc21	inconclusive [inhibitor, partial curve, poor fit]	–
COC(=O)C1=C(C(=O)OC)C2(OC1c1ccccc1C)C(=O)c1ccccc1C2=O (stereo unspecified)	inconclusive [inhibitor, single point]	–
O=C(NC(=S)Nc1ccccn1)c1ccc([N+](=O)[O-])cc1	–	inactive: 74.3%
CCC12CCCN3CCC4(C(=C(C(=O)OC)C1)Nc1ccccc14)C32 (stereo unspecified)	inconclusive [inhibitor, single point]	–
CN(CCc1ccccn1)C(=O)CCC1CCCN(C(=O)c2n[nH]c3c2CCCC3)C1 (stereo unspecified)	inconclusive [inhibitor, single point]	–
C[C@@H]1CC=C[C@H]2[C@H]1C(=O)N(Cc1ccccc1)[C@H]2c1ccc2ccccc2c1Br	active: 10.4 µM	–
O=C(CCCOc1ccccc1)N1CCN(S(=O)(=O)c2ccc(Cl)cc2)CC1	active: 11.7 µM	–
O=C(c1cccn2c(=O)c3ccc(Cl)cc3nc12)N1CCC2(CC1)OCCO2	inconclusive [inhibitor, single point]	–
O=C(c1ccccc1)c1ccc(N2CCCC2)cc1	–	inactive: 117%
O=C(COC(=O)/C=C/c1cccc([N+](=O)[O-])c1)NCCCN1CCCC1=O	–	inactive: -2.61%
COc1ccccc1NC(=O)COc1ccccc1C(=O)Nc1ccccc1	inconclusive [inhibitor, partial curve, poor fit]	–
COc1ccc(/C=N/N=C/c2ccc(OC)cc2)cc1	inconclusive [inhibitor, partial curve, poor fit]	–
C/C(=N/NC(=O)CNS(=O)(=O)c1ccc(C)cc1)c1cccc([N+](=O)[O-])c1	–	inactive: -13.6%
O=c1c2sccc2nc(SCc2ccc([N+](=O)[O-])cc2)n1Cc1ccccn1	–	inactive: 4.87%
CCOC(=O)C1CCN(S(=O)(=O)c2ccc3c(ccn3C)c2)CC1	inconclusive [inhibitor, partial curve]	–

SMILES	Potency	activity change, negative = inhibition
Cc1ccc(-c2nnc(N3CCOCC3)c3ccccc23)cc1S(=O)(=O)N(C)C	inconclusive [inhibitor, partial curve, poor fit]	–
COc1ccc(OC)c(-n2cnc3cc(C(=O)NCCCN4CCOCC4)ccc32)c1	inconclusive [inhibitor, single point]	–
CCOC(=O)C1(Cc2cccc(OC)c2)CCN(C/C=C/c2ccc(OC)cc2)CC1	inconclusive [inhibitor, partial curve, poor fit]	–
Cc1[nH][nH]c(=O)c1C=NCc1ccc(Cl)cc1	–	inactive: -19.9%
CCOC(=O)C1CCCN(C(=O)c2ccc3c(c2)N(C)C(=O)/C(=C/c2ccccc2Cl)S3)C1 (stereo unspecified)	inconclusive [inhibitor, partial curve]	–
COc1ccc(NC(=O)c2ccc(S(=O)(=O)N3CC(C)CC(C)C3)cc2)cc1S(N)(=O)=O (stereo unspecified)	–	inactive: -25.2%
CC(C)(C)c1ccc(/C=C/C(=O)NCCCn2ccnc2)cc1	inconclusive [inhibitor, single point]	–
CCOc1ccccc1CN1CCNC(=O)C1CC(=O)NCc1ccccn1 (stereo unspecified)	inconclusive [inhibitor, partial curve]	–
Cc1cc(N2C3CCC2CC(O)(c2ccc(F)cc2)C3)nc(-c2ccccc2)n1 (stereo unspecified)	inconclusive [inhibitor, single point]	–
CN(C)CCN(Cc1cccs1)c1ccccn1	inconclusive [inhibitor, partial curve, poor fit]	–
FC(F)(F)Oc1ccc(Nc2nc3ccccc3o2)cc1	–	inactive: 124%
Oc1ccccc1C=NCCN=Cc1ccccc1O	–	inactive: 7.53%
O=c1[nH]c(/C=C\c2cccc(F)c2)nc(O)c1[N+](=O)[O-]	inconclusive [inhibitor, partial curve, poor fit]	–
CCCCCCc1cc2cc(C(=O)Nc3cccc(OC)c3)c(=O)oc2cc1O	inconclusive [inhibitor, partial curve, poor fit]	–
Cc1ccc(S(=O)(=O)N2CCOC2C(Cl)(Cl)Cl)cc1 (stereo unspecified)	active: 8.28 µM	–
COc1cc(CNCc2cccs2)ccc1OCc1ccccc1	–	inactive: 35.6%
Cc1nc(Cl)c(Cl)n1CCOc1ccccc1	active: 8.28 µM	–
C=CCSc1ncc(-c2ccccc2)cn1	inconclusive [inhibitor, single point]	–
CCOc1ccc(NC(=O)CN(C)C(=O)c2ccc(COc3ccccc3)o2)cc1OCC	–	inactive: -14.4%
O=C(C1=C(O)C(=O)N(CCN2CCOCC2)C1c1ccc(F)cc1)c1cccs1 (stereo unspecified)	–	inactive: 196%
CCOC(=O)C(C)Oc1ccc(NC(=O)C(Cl)(Cl)Cl)cc1 (stereo unspecified)	inconclusive [inhibitor, single point]	–
Cc1ccc(-c2nn(C)c(=O)c3ccccc23)cc1CNS(C)(=O)=O	inconclusive [inhibitor, single point]	–
COc1ccc(-n2nc3c(N4CCC(C(=O)N5CCC(C)CC5)CC4)nnc(C)c3c2C)cc1	inconclusive [inhibitor, partial curve]	–
